Results published in the RNAGym collection of RNA variant scans (doi:10.1073/pnas.2313332121).
Variants at the background level are over-represented here.

B1: TPR 5TU (parent)
chain: GGAUCUUCUCGAUCUAACAAAAAAGACAAAUCUGCCACAAAGCUUGAGAGCAUCUUCGGAUGCAGAGGCGGCAGCCUUCGGUGGCGCGAUAGCGCCAACGUUCUCAACUAUGACACGCAAAACGCGUGCUCCGUUGAAUGGAGUUUAUCAUG

Variants of: B1
Assay: polymerase ribozyme fitness, log enrichment relative to wild type (log ratio); higher = more active; in vitro selection for triplet polymerase activity
Outline: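 PCR was used to build mutant libraries for each subunit of a heterodimeric triplet polymerase ribozyme, which were then transcribed. A single in vitro selection round, in triplicate, used a frozen incubation at −7 °C and recovered extended constructs by gel excision, streptavidin beads and RT-PCR. Fitness is the logarithm of genotype enrichment relative to wild-type enrichment, averaged over replicates with inverse-variance weights. The logarithm is base 2, and after Illumina sequencing only genotypes with ≥10 input reads and ≥1 read per output were kept.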

GGAUCUUCUCGAUCUAACAAAAGAGAUACAUAUGCGACAAAGCUUGAGAGCAUCUUCGGAUGCAGAGGCGGCAGCCUUCGGUGGUGCGAUAGCGACAACGUUCUCAACUAUGACACGCAAAACGCGGGCUCCGUUGAAUGGAGUUUAUCAUG and GGAUCUUCUCGAUCUAACAAAAGAGACAAAUCUGCCACAAAGCUUGAGAGCAUCUUCGGAUGCAGAGGCGGCUGCCUUCGCUGGCGCGAUAGCGCCAACGUUCUCAACUAUGACACGCAAAACGCGUGCUCCGUUGAAUGGAGUUUAUCAUG are within 0.2 log units of each other in “polymerase ribozyme fitness (log ratio)” value: -4.14 for the first, -4.17 for the second.

Compared with GGAUCUUCUCGAUCUAACAAAAGAGACAAAUCUGCCGCAAAGCUUGAGAGCAUCAUCGGAUGCAGAGCCUGCAGCCUUCGGUCGAGCGAUAGCGCCAACGUUCUCAACUAUGACACGCAAAACGCGUGCUCCGUUGAAUGGAGCUCAUCAUG, GGAUCUUCUCGAUCUAACAAAAGAGACAAAUCUGCCACAAAGCUUGAGAGCUUCUUCGGAUGCAGAGGCGGCAGCCUUCGGUGGCGCGAUAGCGCCAACGUUCUCAACUAUGACACGCAAAACGCGUGCUCCGUUGAAUGGAGUUUAUCAUG is higher in “polymerase ribozyme fitness (log ratio)” value: ≤ -4.2 for the first, -3.51 for the second.

GGAUCUUCUCGAUCUAACAAAAGAGACAAAUCUGCCACAAAGCUUGAGAGCAUCUUCGGAUGCAGAGGCGGCAGCCUUCGGUGGCGCGAUAGCGCCAACGUUCUCACCUAUGACACGCAAAACGCGUGCUCCGUUGAAUGGAGUUUAUCAUG and GGAUCUUCUCGAUCUAACAAAAGAGACAAAUCUGCCACAAAGCUUGAGAGCAUCUUCGGAUGCAGAGGCGGCGGCCUUCGGUGGCGCGAUAGCGUCAACGUUCUCAACUAUGACACGCAAAACGCGUGCUCCGUUGAAUAGCGUUUAUCAUG cannot be ordered by “polymerase ribozyme fitness (log ratio)” value: ≤ -4.2 for the first, ≤ -4.2 for the second.

GGAUCUUCUCGAUCUAACAAAAGAGACAAAUUUGCCACAAAGCUUGAGAGCAUCUUCGCAUGCAGAGGCGGCAGCCUUCGGUGGCGCGAUAGCGCCAACGUUCUCAACAAUGACAAGCAAAACUCGUGCUCCGUUGAAUGGAGUUUAUCAUG and GGAUCUUCUCGAUCUAACAAAAGAGACAAAUCUGCCACGAAGCUUGAGAGCAUCUUCGGAUGCAGAGGCGGCAGCCUUCGGUGACGCGAUAGCGCCAACGUUCUCAACUAUGACACGCAAAACGCGUGCUCCGUUGAAUGGAGUCUAUCAUG cannot be ordered by “polymerase ribozyme fitness (log ratio)” value: ≤ -4.2 for the first, ≤ -4.2 for the second.

GGAUCUUCUCGAUCUAACAAAAGAGACAAAUCUGCCACAACGCUUGAGAGCAUCUUCGGAUGCAGAGGCGGCAGCCUUCGGUGGCGCGAGAGCGCCAACGUUCUCAACUGUGACACGCAAAACGCGUGCUCCGUUGAAUGGAGUUUAUCAUG and GGAUCUUCUCGAUCUAACAAAAGAGACAAAUCUGCCACAAAGCUUGAGAGAAUCGUCGGAUGCAGAGGCGGCAGCCUUCGGUGGGGCGAUCGGGCCAACGUUCUCAACUAUGACACGCAAAACGCGAGCUCCGUUGAAUGGAAUUUAUCAUG cannot be ordered by “polymerase ribozyme fitness (log ratio)” value: ≤ -4.2 for the first, ≤ -4.2 for the second.

GGAUCUUCUCGAUCUAACAAAAGAGACAAAUCUGCCACAAAGCUUGAGAGCAUGUUCGGAUGCAGAGGCGGCAGCCAUCGGUGGCGCGAUAGCGCCAAGGUUCUCAACCAUGACACGCAAAACGAGUGCUCCGUUGAGUGGAGUUUAUCAUG and GGAUCUUCUCGAUCUAACAAAAGAGACAAAUCUGCCAUAAAGCUUGAGAGCAUCUUCGGAAGCAGAGGCGGCAGCCUUCGGUGGCGCGAUAGCGCCAACGUUCUCAACUAUGACACGCAAAACGCGUGCUCCGUUGAAUGGAGUUUAUCAUG cannot be ordered by “polymerase ribozyme fitness (log ratio)” value: ≤ -4.2 for the first, ≤ -4.2 for the second.

GGAUCUUCUCGAUCUAACAAAAGAGACAAAUCUGCCACAAAGCUUGAGAGCAUCUUCGGAUGCAGAGGCGGCAGCCUUCGGUGGCGCGGUGGCGUCAACGUUCUCAACUAUGACACGCAAAACGCGUGCUCCGUUGAAUGGAGUUUAGCAUG and GGAUCUUCUCGAUCUAACAAAAGAGACAAAUCUGCCACAAAGCUUGAGAGCUUCUUUGGAUGCAGAGGCGUCAGCCUUUGGUGGCGCGAUAGCGCAAACGUUCUCAACUAUGACACGCAAAACGCGUGCUCCGUUGAAUGGAGUUUAUCAUG cannot be ordered by “polymerase ribozyme fitness (log ratio)” value: ≤ -4.2 for the first, ≤ -4.2 for the second.

GGAUCUUCUCGAUCUAACAAAAGAGACAACUCUGCCACAAAGCUUGAGAGCAUCUUCGGAUGCAGAGGCGGCAGCCUUCGGUGGCGGGCUAGCGCCAACGUUGUCAAAUAUGACACGCAAAACGCGUGCUCCGUUGAAUGGAGUUUAUCAUG and GGAUCUUCUCGAUCUAACAAAAGAGACAAAUCUGCCAUAAAGCUUGAGAGCAUCUUCGUAUGCAGAGGCGGCAGCCUUCGGUGGCGCGAUAGCGCCAACGUUCUCAACUAUCACACGCAAAACGCGUGCUCCGUUGAAUGGAGUUUAUCAUG cannot be ordered by “polymerase ribozyme fitness (log ratio)” value: ≤ -4.2 for the first, ≤ -4.2 for the second.

GGAUCUUCUCGAUCUAACAAAAGAGACAAAUCUGCCACAACGCUUGAGAGCAUCUUCGGAUGCAGAGGCGGCAGCCUUCGGUGGCGCGAGAGCGCCAACGUUCUCAACUAUGACACGCAAAACGCGUGCUCCGUUGAAUGGAGUGUAUCAUG and GGAUCUUCUCGAUCUAACAAAAGAGACAAAUCUGCCAUAAAGCUUGAGAGCAUCUUCGGAAGCAGAGGAGGCAGCUUUCGGUGGCGCGAUAGCGCGAACGUUCUCAACUAUGACAUUCAAAACGCGUGCUCCGUUGAAUGGAGUUUAUCAUG cannot be ordered by “polymerase ribozyme fitness (log ratio)” value: ≤ -4.2 for the first, ≤ -4.2 for the second.

For GGAUCUUCUCGAUCUAACAAAAGAGACAAAUCUGCCAUAAAGCUUGAGAGCAUCUACUGAUGCAGAGGCGGCAGCCUUCGGUGGCGGGAUAGCGCCAACGUUCUCAACUAUGACACGAAAAACGCGUGCUCCGUUGAAUGGAGUUUAUCAUG, the “polymerase ribozyme fitness (log ratio)” value was ≤ -4.2.
